Laboratory results from a compilation of properties of binary mixtures (doi:10.1016/j.molliq.2015.01.031).
The densities may have been worked out from excess volumes.

Test: xn = mol fraction of the nth substance listed
Settings: 101 kPa

CCCC[n+]1ccn(C)c1.F[B-](F)(F)F + CC(O)CO
mass density (303.15 K, x2 = 0): 1195.2 kg/m3 | mass density (318.15 K, x2 = 0): 1184.5 kg/m3 | mass density (323.15 K, x2 = 0): 1181 kg/m3

CC(O)CO (stereo not drawn) + CCCC[n+]1ccn(C)c1.F[B-](F)(F)F
mass density (298.15 K, x1 = 0.1182): 1190.4 kg/m3 | mass density (298.15 K, x1 = 0.4189): 1160.4 kg/m3 | mass density (298.15 K, x1 = 0.5064): 1147 kg/m3 | mass density (298.15 K, x1 = 0.6165): 1127.7 kg/m3 | mass density (298.15 K, x1 = 0.695): 1111.8 kg/m3 | mass density (298.15 K, x1 = 0.797): 1089.6 kg/m3 | mass density (298.15 K, x1 = 0.8966): 1064.9 kg/m3 | mass density (298.15 K, x1 = 1): 1032.6 kg/m3 | mass density (303.15 K, x1 = 0.1182): 1186.8 kg/m3 | mass density (303.15 K, x1 = 0.3122): 1169 kg/m3 | mass density (303.15 K, x1 = 0.5064): 1142.9 kg/m3 | mass density (303.15 K, x1 = 0.6165): 1123.5 kg/m3 | mass density (303.15 K, x1 = 0.797): 1085.5 kg/m3 | mass density (303.15 K, x1 = 0.8966): 1061.2 kg/m3 | mass density (303.15 K, x1 = 1): 1029 kg/m3 | mass density (308.15 K, x1 = 0.4189): 1152.1 kg/m3 | mass density (308.15 K, x1 = 0.5064): 1138.7 kg/m3 | mass density (308.15 K, x1 = 0.6165): 1119.5 kg/m3 | mass density (308.15 K, x1 = 0.695): 1103.8 kg/m3 | mass density (308.15 K, x1 = 0.797): 1081.5 kg/m3 | mass density (308.15 K, x1 = 0.8966): 1057.2 kg/m3 | mass density (308.15 K, x1 = 1): 1025.2 kg/m3 | mass density (313.15 K, x1 = 0.1182): 1179.6 kg/m3 | mass density (313.15 K, x1 = 0.3122): 1161.4 kg/m3 | mass density (313.15 K, x1 = 0.4189): 1147.9 kg/m3 | mass density (313.15 K, x1 = 0.5064): 1134.5 kg/m3 | mass density (313.15 K, x1 = 0.695): 1099.8 kg/m3 | mass density (313.15 K, x1 = 0.797): 1077.5 kg/m3 | mass density (313.15 K, x1 = 1): 1021.4 kg/m3 | mass density (318.15 K, x1 = 0.1182): 1176.1 kg/m3 | mass density (318.15 K, x1 = 0.4189): 1143.5 kg/m3 | mass density (318.15 K, x1 = 0.5064): 1130.3 kg/m3 | mass density (318.15 K, x1 = 0.6165): 1111.2 kg/m3 | mass density (318.15 K, x1 = 0.695): 1095.7 kg/m3 | mass density (318.15 K, x1 = 0.797): 1073.4 kg/m3 | mass density (318.15 K, x1 = 1): 1017.6 kg/m3 | mass density (323.15 K, x1 = 0.1182): 1172.5 kg/m3 | mass density (323.15 K, x1 = 0.2003): 1165.3 kg/m3 | mass density (323.15 K, x1 = 0.3122): 1153.6 kg/m3 | mass density (323.15 K, x1 = 0.4189): 1139.4 kg/m3 | mass density (323.15 K, x1 = 0.5064): 1126.2 kg/m3 | mass density (323.15 K, x1 = 0.695): 1091.6 kg/m3 | mass density (323.15 K, x1 = 0.797): 1069.4 kg/m3 | mass density (323.15 K, x1 = 0.8966): 1045 kg/m3 | mass density (323.15 K, x1 = 1): 1013.8 kg/m3

OCCCO + CCCC[n+]1ccn(C)c1.F[B-](F)(F)F
mass density (298.15 K, x1 = 0.1026): 1192.8 kg/m3 | mass density (298.15 K, x1 = 0.2072): 1185.8 kg/m3 | mass density (298.15 K, x1 = 0.3172): 1176.1 kg/m3 | mass density (298.15 K, x1 = 0.503): 1151.4 kg/m3 | mass density (298.15 K, x1 = 0.6011): 1137.3 kg/m3 | mass density (298.15 K, x1 = 0.7009): 1119.5 kg/m3 | mass density (298.15 K, x1 = 0.8979): 1079.3 kg/m3 | mass density (298.15 K, x1 = 1): 1049.7 kg/m3 | mass density (303.15 K, x1 = 0.2072): 1182.1 kg/m3 | mass density (303.15 K, x1 = 0.3172): 1172.4 kg/m3 | mass density (303.15 K, x1 = 0.3943): 1159.9 kg/m3 | mass density (303.15 K, x1 = 0.503): 1147.7 kg/m3 | mass density (303.15 K, x1 = 0.6011): 1133.6 kg/m3 | mass density (303.15 K, x1 = 0.7009): 1115.8 kg/m3 | mass density (303.15 K, x1 = 0.8006): 1097.9 kg/m3 | mass density (303.15 K, x1 = 0.8979): 1075.9 kg/m3 | mass density (303.15 K, x1 = 1): 1046.5 kg/m3 | mass density (308.15 K, x1 = 0.1026): 1185.6 kg/m3 | mass density (308.15 K, x1 = 0.2072): 1178.5 kg/m3 | mass density (308.15 K, x1 = 0.3172): 1168.7 kg/m3 | mass density (308.15 K, x1 = 0.3943): 1156.2 kg/m3 | mass density (308.15 K, x1 = 0.503): 1144 kg/m3 | mass density (308.15 K, x1 = 0.6011): 1130 kg/m3 | mass density (308.15 K, x1 = 0.7009): 1112.3 kg/m3 | mass density (308.15 K, x1 = 0.8006): 1094.4 kg/m3 | mass density (308.15 K, x1 = 1): 1043.4 kg/m3 | mass density (313.15 K, x1 = 0.1026): 1182 kg/m3 | mass density (313.15 K, x1 = 0.2072): 1174.9 kg/m3 | mass density (313.15 K, x1 = 0.6011): 1126.3 kg/m3 | mass density (313.15 K, x1 = 0.7009): 1108.7 kg/m3 | mass density (313.15 K, x1 = 0.8006): 1091 kg/m3 | mass density (313.15 K, x1 = 0.8979): 1069.1 kg/m3 | mass density (313.15 K, x1 = 1): 1040.2 kg/m3 | mass density (318.15 K, x1 = 0.1026): 1178.5 kg/m3 | mass density (318.15 K, x1 = 0.2072): 1171.3 kg/m3 | mass density (318.15 K, x1 = 0.3172): 1161.4 kg/m3 | mass density (318.15 K, x1 = 0.3943): 1148.9 kg/m3 | mass density (318.15 K, x1 = 0.503): 1136.7 kg/m3 | mass density (318.15 K, x1 = 0.8006): 1087.5 kg/m3 | mass density (318.15 K, x1 = 0.8979): 1065.8 kg/m3 | mass density (318.15 K, x1 = 1): 1037.1 kg/m3 | mass density (323.15 K, x1 = 0.1026): 1175 kg/m3 | mass density (323.15 K, x1 = 0.2072): 1167.7 kg/m3 | mass density (323.15 K, x1 = 0.3172): 1157.8 kg/m3 | mass density (323.15 K, x1 = 0.503): 1133.1 kg/m3 | mass density (323.15 K, x1 = 0.6011): 1119.2 kg/m3 | mass density (323.15 K, x1 = 0.7009): 1101.6 kg/m3 | mass density (323.15 K, x1 = 0.8006): 1084 kg/m3 | mass density (323.15 K, x1 = 1): 1033.9 kg/m3

CCCC[n+]1ccn(C)c1.F[B-](F)(F)F + OCCCO
mass density (298.15 K, x2 = 0): 1198.8 kg/m3 | mass density (303.15 K, x2 = 0): 1195.2 kg/m3 | mass density (308.15 K, x2 = 0): 1191.6 kg/m3 | mass density (313.15 K, x2 = 0): 1188 kg/m3 | mass density (318.15 K, x2 = 0): 1184.5 kg/m3 | mass density (323.15 K, x2 = 0): 1181 kg/m3
